Laboratory results taken from ChEMBL document CHEMBL5606458, “ASAP - ZIKV NS2B-NS3 protease fluorescence single point” (2024).
About 160 (5.9%) of roughly 2,700 compounds showed an effect of 50% or more. This is one part of the list.

Biological target: Nonstructural protein 3 (Zika virus) (UniProt A0A024AXB9)
[1] = PRVABC59, Concentration 15.0 uM, Number of replicates 1.0
[2] = PRVABC59, Concentration 50.0 uM, Number of replicates 1.0

Chain of UniProt A0A024AXB9 (A0A024AXB9 as listed by the source): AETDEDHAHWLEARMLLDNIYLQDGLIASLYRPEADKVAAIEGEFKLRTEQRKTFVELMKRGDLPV

CCCCCC(=O)N[C@@H](Cc1ccc(CN)cc1)C(=O)Nc1cccc(C(N)=O)c1
inhibition (PRVABC59, Concentration 49.5 uM, Number of replicates 2.0, Standard deviation 2.7863703861974125 %): 3.11% | inhibition (PRVABC59, Concentration 99.01 uM, Number of replicates 2.0, Standard deviation 1.994146105688083 %): 8.07%

COc1cc(CNC(=O)c2cc(Cl)ccc2NS(=O)(=O)c2ccc(Oc3ccccc3Cl)cc2)cc(OC)c1OC
inhibition [1]: 19.3%

O=S(=O)(c1ccc(Oc2ccccc2Cl)cc1)N1CCCCC1
inhibition (PRVABC59, Concentration 49.5 uM, Number of replicates 2.0, Standard deviation 4.647075144080911 %): 2.52% | inhibition (PRVABC59, Concentration 99.01 uM, Number of replicates 2.0, Standard deviation 2.1543833661046805 %): 2.07% | inhibition (PRVABC59, Concentration 198.0 uM, Number of replicates 2.0, Standard deviation 2.3847652893231714 %): 5.34%

Cc1cc(CO)c2cccc(NC(=O)c3nc(C4CCNCC4)oc3C)c2n1
inhibition (PRVABC59, Concentration 49.95 uM, Number of replicates 2.0, Standard deviation 16.97136657317194 %): 81.5% | inhibition (PRVABC59, Concentration 99.9 uM, Number of replicates 2.0, Standard deviation 2.022315036184036 %): 88.9%

CNS(=O)(=O)c1ccc(Oc2ccccc2Cl)cc1
inhibition (PRVABC59, Concentration 49.5 uM, Number of replicates 2.0, Standard deviation 2.117620524609962 %): 3.32% | inhibition (PRVABC59, Concentration 99.01 uM, Number of replicates 2.0, Standard deviation 2.851061668270481 %): 6.03% | inhibition (PRVABC59, Concentration 198.0 uM, Number of replicates 2.0, Standard deviation 3.362511651901451 %): 9.61%

COc1cc(CCNC(=O)C2CCN(c3ccc(C=O)cc3)CC2)cc(OC)c1O
inhibition [2]: 28.9%

CN(CCCOc1ccc(Br)cc1)C(=O)C1CCN(c2ccc(C=O)cc2)CC1
inhibition [2]: 3.72%

Cc1cc(CO)c2cccc(CC(=O)NCCc3ncc[nH]3)c2n1
inhibition (PRVABC59, Concentration 49.95 uM, Number of replicates 2.0, Standard deviation 0.020358613704702253 %): 12.5% | inhibition (PRVABC59, Concentration 99.9 uM, Number of replicates 2.0, Standard deviation 0.02544995300481825 %): 32.3%

O=Cc1ccc(N2CCC(C(=O)Nc3c(F)c(F)cc(F)c3F)CC2)cc1
inhibition [2]: 24.1%

O=C(N[C@H](CO)[C@H](O)c1ccc([N+](=O)[O-])cc1)c1cc(Cl)ccc1NS(=O)(=O)c1ccc(Oc2ccccc2Cl)cc1
inhibition [1]: 37.4%

C[C@H](NC(=O)c1cc(Cl)ccc1NS(=O)(=O)c1ccc(Oc2ccccc2Cl)cc1)c1cccc2ccccc12
inhibition [1]: 29.8%

O=C(N[C@@H](CCO)c1ccccc1F)c1cc(Cl)ccc1NS(=O)(=O)c1ccc(Oc2ccccc2Cl)cc1
inhibition [1]: 37%

Cc1cc(CO)c2cccc(C[C@H](NC(=O)c3cnn(Cc4c(C)noc4C)c3)C(=O)O)c2n1
inhibition (PRVABC59, Concentration 49.95 uM, Number of replicates 2.0, Standard deviation 1.1541732811791248 %): -1.7% | inhibition (PRVABC59, Concentration 99.9 uM, Number of replicates 2.0, Standard deviation 1.224427357199752 %): 1.57%

CC(=O)N[C@@H](Cc1cnc[nH]1)C(=O)Nc1cccc2cccnc12
inhibition (PRVABC59, Concentration 49.95 uM, Number of replicates 2.0, Standard deviation 1.898018247954012 %): 11.4% | inhibition (PRVABC59, Concentration 99.9 uM, Number of replicates 2.0, Standard deviation 0.2720515008168473 %): 46.9%

COc1cccc2c1OC[C@@H](NC(=O)c1cc(Cl)ccc1NS(=O)(=O)c1ccc(Oc3ccccc3Cl)cc1)C2
inhibition [1]: 25.4%

Cc1cnccc1NC(=O)c1nc(C2CC2)n(C)n1
inhibition (PRVABC59, Concentration 49.5 uM, Number of replicates 2.0, Standard deviation 4.720574485290029 %): 2.91% | inhibition (PRVABC59, Concentration 99.01 uM, Number of replicates 2.0, Standard deviation 0.6899133958050134 %): 2.1% | inhibition (PRVABC59, Concentration 198.0 uM, Number of replicates 2.0, Standard deviation 2.5180749032014678 %): 1.77%

Cc1cc(CO)c2cccc(CC(=O)N(c3ncccn3)S(=O)(=O)c3ccc(N)cc3)c2n1
inhibition (PRVABC59, Concentration 49.95 uM, Number of replicates 2.0, Standard deviation 0.08143445481880901 %): 93.4% | inhibition (PRVABC59, Concentration 99.9 uM, Number of replicates 2.0, Standard deviation 0.09670172922339526 %): 93.5%

CN(C(=O)C1CCN(c2ccc(C=O)cc2)CC1)C1CCN(C(=O)OC(C)(C)C)CC1
inhibition [2]: 20.8%

Cc1cc(CO)c2cccc(Nc3cc(C)on3)c2n1
inhibition (PRVABC59, Concentration 49.95 uM, Number of replicates 2.0, Standard deviation 0.1664787029188791 %): -8.71%

CN(C)S(=O)(=O)[C@H]1C[C@H](NC(=O)c2cccc3c2NC(=O)[C@]2(CCCN2)C3)C1
inhibition (PRVABC59, Concentration 49.5 uM, Number of replicates 2.0, Standard deviation 0.8522804207705638 %): 5.3% | inhibition (PRVABC59, Concentration 99.01 uM, Number of replicates 2.0, Standard deviation 1.1504282386609923 %): 10.8% | inhibition (PRVABC59, Concentration 198.0 uM, Number of replicates 2.0, Standard deviation 0.957686991498005 %): 18.8%

O=C(NCCSc1ccc(Cl)cc1)c1cc(Cl)ccc1NS(=O)(=O)c1ccc(Oc2ccccc2Cl)cc1
inhibition [1]: 21.4%

O=C(c1csc([C@H]2CCCNC2)n1)N1CC[C@H](c2cccnc2)C1
inhibition (PRVABC59, Concentration 49.5 uM, Number of replicates 2.0, Standard deviation 1.6167440894523137 %): 2% | inhibition (PRVABC59, Concentration 99.01 uM, Number of replicates 2.0, Standard deviation 1.2591585098620028 %): 4.03% | inhibition (PRVABC59, Concentration 198.0 uM, Number of replicates 2.0, Standard deviation 1.4778944158999632 %): 5.76%

CN1CCN(C2CCN(C(=O)C3CCN(c4ccc(C=O)cc4)CC3)CC2)CC1
inhibition [2]: 19.7%

O=Cc1ccc(N2CCC(C(=O)NCCn3ncc4ccccc4c3=O)CC2)cc1
inhibition [2]: 28.1%

COc1ccc(S(=O)(=O)N2CCC(C(=O)Nc3nccs3)CC2)cc1
inhibition (PRVABC59, Concentration 49.5 uM, Number of replicates 2.0, Standard deviation 1.3012511996725602 %): -0.135% | inhibition (PRVABC59, Concentration 99.01 uM, Number of replicates 2.0, Standard deviation 2.3185363216290313 %): 0.038% | inhibition (PRVABC59, Concentration 198.0 uM, Number of replicates 2.0, Standard deviation 1.855141168414174 %): 1.27%

CC(C)(C)[C@@H](NC(=O)OCc1ccccc1)C(=O)Nc1cccc(CN)c1
inhibition (PRVABC59, Concentration 49.5 uM, Number of replicates 2.0, Standard deviation 0.837580021478449 %): -2.34% | inhibition (PRVABC59, Concentration 99.01 uM, Number of replicates 2.0, Standard deviation 0.5497429243140284 %): -2.03% | inhibition (PRVABC59, Concentration 198.0 uM, Number of replicates 2.0, Standard deviation 0.14002884754327624 %): 0.262%

O=C(c1cc(Cl)ccc1NS(=O)(=O)c1ccc(Oc2ccccc2Cl)cc1)N(Cc1ccncc1)C[C@H]1CCCO1
inhibition [1]: 20.2%

O=C1[C@@H]2CCCN2[C@H](c2ccc([N+](=O)[O-])cc2)N1c1ccc([N+](=O)[O-])cc1
inhibition (PRVABC59, Concentration 49.5 uM, Number of replicates 2.0, Standard deviation 5.108750921879123 %): -1.98% | inhibition (PRVABC59, Concentration 99.01 uM, Number of replicates 2.0, Standard deviation 2.6075310241346523 %): 3.35% | inhibition (PRVABC59, Concentration 198.0 uM, Number of replicates 2.0, Standard deviation 2.497353851624263 %): 11.4%

O=C(c1cc(Cl)ccc1NS(=O)(=O)c1ccc(Oc2ccccc2Cl)cc1)N1CCc2c([nH]c3ccccc23)C1
inhibition [1]: 12.6%

CC(=O)Nc1ccc(C(=O)N[C@@H](Cc2cccc3c(CO)cc(C)nc23)C(=O)O)cn1
inhibition (PRVABC59, Concentration 49.95 uM, Number of replicates 2.0, Standard deviation 2.2029654535956653 %): -1.45% | inhibition (PRVABC59, Concentration 99.9 uM, Number of replicates 2.0, Standard deviation 1.1943182808262969 %): 4.57%

O=Cc1ccc(N2CCC(C(=O)N3CCN(CC(F)(F)F)CC3)CC2)cc1
inhibition [2]: 22.2%

O=Cc1ccc(N2CCC(C(=O)Nc3ccncc3I)CC2)cc1
inhibition [2]: 22.7%

O=C([C@@H]1CCCCN1C(=O)c1cc(Cl)ccc1NS(=O)(=O)c1ccc(Oc2ccccc2Cl)cc1)N1CCCC1
inhibition [1]: 16.4%

O=C(Nc1nc2cc(Cl)ccc2s1)c1cc(Cl)ccc1NS(=O)(=O)c1ccc(Oc2ccccc2Cl)cc1
inhibition [1]: 18.3%

CN(C)C(=O)N1CCN(C(=O)C2CCN(c3ccc(C=O)cc3)CC2)CC1
inhibition [2]: 19.2%

Cc1nccn1-c1ccccc1CNC(=O)C1CCN(c2ccc(C=O)cc2)CC1
inhibition (PRVABC59, Concentration 10.0 uM, Number of replicates 1.0): 24.9%

CC(C)NC(=O)CN1CCN(C(=O)c2cc(Cl)ccc2NS(=O)(=O)c2ccc(Oc3ccccc3Cl)cc2)CC1
inhibition [1]: -2.42%

CCn1ccnc(N[C@@H](Cc2c[nH]c3ccccc23)C(=O)N2CCCCC2)c1=O
inhibition (PRVABC59, Concentration 49.5 uM, Number of replicates 2.0, Standard deviation 3.438220710231146 %): -0.678% | inhibition (PRVABC59, Concentration 99.01 uM, Number of replicates 2.0, Standard deviation 6.741965325379917 %): 3.36% | inhibition (PRVABC59, Concentration 198.0 uM, Number of replicates 2.0, Standard deviation 3.9016173017072093 %): 1.74%

Cc1cccc(CN2CCC(c3c[nH]c4cccnc34)CC2)c1
inhibition (PRVABC59, Concentration 49.5 uM, Number of replicates 2.0, Standard deviation 2.42457357779759 %): 2.44% | inhibition (PRVABC59, Concentration 99.01 uM, Number of replicates 2.0, Standard deviation 3.1506488853312535 %): 7.92% | inhibition (PRVABC59, Concentration 198.0 uM, Number of replicates 2.0, Standard deviation 1.8696443151869018 %): 12.8%

Cc1cc(CO)c2cccc(Cc3ccccc3NC(=O)[C@@H](N)c3ccsc3)c2n1
inhibition (PRVABC59, Concentration 49.95 uM, Number of replicates 2.0, Standard deviation 2.2445410806003347 %): 0.734% | inhibition (PRVABC59, Concentration 99.9 uM, Number of replicates 2.0, Standard deviation 1.969699247677824 %): 6.11%
